Results on seven molecules are retold here after publication PMC7286521.

Chains of the proteins cited; added tags and fusions are not shown. Lines headed by an entry give the natural chain unless they say otherwise; changes in a name come on top.
UniProt P46938: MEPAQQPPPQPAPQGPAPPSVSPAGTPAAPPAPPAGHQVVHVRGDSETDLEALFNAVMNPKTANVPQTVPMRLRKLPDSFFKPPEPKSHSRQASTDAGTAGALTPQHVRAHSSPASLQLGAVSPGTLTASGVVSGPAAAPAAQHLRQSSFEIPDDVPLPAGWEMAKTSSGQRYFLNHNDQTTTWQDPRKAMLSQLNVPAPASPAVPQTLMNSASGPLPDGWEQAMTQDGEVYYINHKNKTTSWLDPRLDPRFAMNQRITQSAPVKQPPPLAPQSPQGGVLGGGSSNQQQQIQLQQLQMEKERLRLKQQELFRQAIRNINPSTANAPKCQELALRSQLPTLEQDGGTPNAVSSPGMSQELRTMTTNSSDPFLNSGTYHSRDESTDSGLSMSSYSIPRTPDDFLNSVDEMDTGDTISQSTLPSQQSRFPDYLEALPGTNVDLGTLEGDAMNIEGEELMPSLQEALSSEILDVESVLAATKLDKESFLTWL
UniProt Q15691: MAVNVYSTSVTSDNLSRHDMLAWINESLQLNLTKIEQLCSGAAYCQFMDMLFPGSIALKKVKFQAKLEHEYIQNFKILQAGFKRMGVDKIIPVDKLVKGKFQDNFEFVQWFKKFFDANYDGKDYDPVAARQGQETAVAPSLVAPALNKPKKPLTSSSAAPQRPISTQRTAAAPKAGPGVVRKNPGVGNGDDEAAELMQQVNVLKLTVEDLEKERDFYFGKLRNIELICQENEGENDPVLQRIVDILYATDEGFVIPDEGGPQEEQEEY
UniProt P48972: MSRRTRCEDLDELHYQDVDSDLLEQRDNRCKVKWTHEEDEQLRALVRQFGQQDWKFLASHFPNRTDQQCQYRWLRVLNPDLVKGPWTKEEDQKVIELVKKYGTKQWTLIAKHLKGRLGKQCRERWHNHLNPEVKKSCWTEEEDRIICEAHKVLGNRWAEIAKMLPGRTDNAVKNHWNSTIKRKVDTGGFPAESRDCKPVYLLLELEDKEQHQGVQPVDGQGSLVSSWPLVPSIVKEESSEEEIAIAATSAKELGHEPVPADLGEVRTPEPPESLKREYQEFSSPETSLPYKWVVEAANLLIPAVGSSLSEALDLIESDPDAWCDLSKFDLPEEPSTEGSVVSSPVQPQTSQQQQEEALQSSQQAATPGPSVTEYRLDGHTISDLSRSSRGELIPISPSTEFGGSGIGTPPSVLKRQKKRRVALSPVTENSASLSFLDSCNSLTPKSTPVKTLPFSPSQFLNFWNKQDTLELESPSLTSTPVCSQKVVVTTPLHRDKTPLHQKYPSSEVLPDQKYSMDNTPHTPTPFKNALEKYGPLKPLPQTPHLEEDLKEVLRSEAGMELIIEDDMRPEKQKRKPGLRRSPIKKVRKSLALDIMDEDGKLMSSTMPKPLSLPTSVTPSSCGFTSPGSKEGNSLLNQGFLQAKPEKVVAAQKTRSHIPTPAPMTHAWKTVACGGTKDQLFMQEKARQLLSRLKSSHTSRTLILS
UniProt P10244: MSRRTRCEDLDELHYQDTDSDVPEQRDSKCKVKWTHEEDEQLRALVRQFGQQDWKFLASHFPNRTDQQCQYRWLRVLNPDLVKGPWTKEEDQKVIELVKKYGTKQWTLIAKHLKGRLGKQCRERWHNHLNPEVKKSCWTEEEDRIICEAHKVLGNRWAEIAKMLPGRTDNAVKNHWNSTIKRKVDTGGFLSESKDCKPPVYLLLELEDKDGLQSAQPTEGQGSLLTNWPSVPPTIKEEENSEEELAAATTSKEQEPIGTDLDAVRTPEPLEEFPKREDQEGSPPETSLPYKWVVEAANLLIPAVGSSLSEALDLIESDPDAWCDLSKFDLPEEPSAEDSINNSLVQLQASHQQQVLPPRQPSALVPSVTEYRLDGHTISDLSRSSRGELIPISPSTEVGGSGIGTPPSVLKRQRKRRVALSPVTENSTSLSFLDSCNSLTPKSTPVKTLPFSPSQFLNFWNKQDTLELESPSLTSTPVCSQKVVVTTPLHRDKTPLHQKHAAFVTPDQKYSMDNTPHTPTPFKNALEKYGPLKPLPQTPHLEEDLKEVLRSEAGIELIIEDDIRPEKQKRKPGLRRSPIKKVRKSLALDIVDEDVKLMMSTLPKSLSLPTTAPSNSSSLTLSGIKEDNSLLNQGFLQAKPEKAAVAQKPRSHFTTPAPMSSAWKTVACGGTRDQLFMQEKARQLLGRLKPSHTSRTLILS

For one experiment, the target named is GST-WW1/2 (human) (UniProt P46937). Briefly: pull-down; recombinant GST or GST-YAP fusions immobilised on glutathione beads (5 μg by the legend, 5 mg by the methods), incubated with lysates of HeLa cells expressing HA-tagged proteins, 3 hours at 4°C, six washes with TNN buffer, anti-HA immunoblot; only the target purified. For orientation: Immunoblotting shows a protein as a band on a membrane.

Experiment [1] concerns the target YAP (endogenous, mouse embryonic cardiomyocytes) (mouse (endogenous in E14.5 cardiomyocytes)) (UniProt P46938). The experiment can be described thus: proximity ligation; Duolink In Situ PLA in E14.5 mouse cardiomyocytes with antibodies to YAP, LIN9 and B-MYB phospho-T487; controls: siRNA depletion of YAP/TAZ, LIN9 or B-MYB, deletion of Lin9, one antibody omitted.
In the next experiment the target is GST-WW1 (human) (UniProt P46937). The experiment can be described thus: pull-down; recombinant GST or GST-YAP fusions immobilised on glutathione beads (5 μg by the legend, 5 mg by the methods), incubated with lysates of HeLa cells expressing HA-tagged proteins, 3 hours at 4°C, six washes with TNN buffer, anti-HA immunoblot; only the target purified.
Another experiment has as its target GST-WW2 (human) (UniProt P46937). The experiment is described as above.
The target in experiment [2] is flag-YAP (human) (UniProt P46937). The experiment can be described thus: co-IP; ectopically expressed flag-YAP and HA-B-MYB in C2C12 myoblasts.
Experiment [3] deals with FLAG-YAP (aa 2–154) (human) (UniProt P46937). Briefly: co-IP; HeLa cells expressing HA-B-MYB constructs and flag-YAP constructs; 1 mg whole cell lysate in TNN buffer immunoprecipitated with FLAG antibody on protein G dynabeads, five washes, immunoblot with anti-HA.
Experiment [4] deals with FLAG-YAP (aa 2–287) (human) (UniProt P46937). The description is as above.
In experiment [5] the target is flag-YAP (human) (UniProt P46937). The experiment is described as above.
The target in experiment [6] is FLAG-YAP (aa 264–504) (human) (UniProt P46937). Described as above.
The target in experiment [7] is FLAG-YAP (aa 2–263) (human) (UniProt P46937). Described as above.
Experiment [8] concerns the target FLAG-YAP Δ155–263 (human) (UniProt P46937). The experiment is described as above.
Experiment [9] deals with FLAG-YAP (aa 2–499) (human) (UniProt P46937). The description is as above.
In experiment [10] the target is FLAG-YAP (aa 288–504) (human) (UniProt P46937). Described as above.
Experiment [11] has as its target FLAG-YAP (aa 155–504) (human) (UniProt P46937). Described as above.

These are yes or no findings as the source states them, for the method shown. Binding seen in cells or lysates may run through a third protein. Some binding calls cover weakened binding; strength is not graded here.

As for HA-EB1 (from UniProt Q15691 1-268), the binding entry in the experiment with GST-WW1/2 (human) was “no binding”.

For the molecule “B-MYB (endogenous, mouse embryonic cardiomyocytes) (from UniProt P48972 1-704)”, the binding result in [1] is “binds”.

As for “HA-B-MYB(2–241) (from UniProt P10244 2-241) (domain or fragment)”, the binding result with GST-WW1 (human) was “binds”.

For HA-B-MYB (from UniProt P10244 1-700), the binding entry with GST-WW2 (human) was “binds”; in the experiment with GST-WW1 (human), “binds”; with GST-WW1/2 (human), “binds”; with flag-YAP (human) [2], “binds”; in [3], “no binding”; in experiment [4] it was “binds”. Further, the binding result with flag-YAP (human) [5] was “binds”; in experiment [6], “no binding”; in experiment [7], “binds”; in [8] it was “no binding”; in experiment [9], “binds”; in experiment [10], “no binding”. In addition, the binding result in [11] is given as “binds”.

“HA-B-MYB(242–410) (from UniProt P10244 242-410) (domain or fragment)”: in the experiment with GST-WW1 (human), the binding result is “no binding”.

For the molecule “HA-B-MYB(2–79) (from UniProt P10244 2-79) (domain or fragment)”, the binding result in the experiment with GST-WW1 (human) was “no binding”.

B1: LIN9 (endogenous, mouse embryonic cardiomyocytes) (protein, UniProt Q8C735 1-542)
chain: MAELDQLPDESSSAKALVSLKEGSLSNTWNEKYSSLQKTPVWKGRNAGPAVEMPFRNSKRSRLFSDEDDRQINTKSPKRNQRVAMIPQKFTATMSTPDKKASQKIGFRLRNLLKLPKAHKWCIYEWFYSNIDKPLFEGDNDFCVCLKESFPNLKTRKLTRVEWGKIRRLMGKPRRCSSAFFEEERSALKQKRQKIRLLQQRKVADVSQFKDLPDEIPLPLVIGTKVTARLRGIHDGLFTGQIDAVDTLNATYRVTFDRTGLGTHTIPDYEVLSNEPHETMPISAFGQKQRPSRFFMTPPRLHYTPPLQSPITDGDPLLGQSPWRSKVSGSDTETLGGFPVEFLIQVTKLSKILMIKKEHIKKLREMNTEAEKLKSYSMPIGIEFQRRYATIVLELEQLNKDLNKVLHKVQQYCYELAPDQGLQPADQPTDMRRRCEEEAQEIVRQANSASGQPCVENENLTDLISRLTAILLQIKCLAEGGDLNSFEFKSLTDSLNDIKNTIDASNISCFQNNVEIHVAHIQSGLSQMGNLHAFAANNTNRD
Take B1: in experiment [1], the binding result is on record as “binds”.
